In the supplement of paper PMC4967469:
IC50 is the fitted dose that halves viability relative to control wells, and lower means more sensitive; a limit (>, <) means that the fit lies beyond the doses tested. The AUC spans the tested range (256-fold, ending at the top dose) of the same fit; the more sensitive the line, the further below 1. For some assays here: The top dose, if marked as inferred, is not printed in the source and was worked back from the curve model.

Tests used:
Assay in all cases: Viability of human cancer cell lines after 72 h of drug (GDSC screen)
BMS-345541 = compound: Cc1ccc2nc(NCCN)c3ncc(C)n3c2c1 [BMS-345541]; details: top dose 16 µM
Protocol: (§1)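 Human cancer cell lines in 384-well plates, medium with 10% serum, drug for 72 h over a 256-fold dose range (nine 2-fold or five 4-fold steps up to the top dose). Adherent lines were fixed and stained with the nucleic acid dye Syto60, suspension lines read with resazurin; signal relative to control wells, capped at 0 and 100%. One two-parameter sigmoid per drug and line, fitted in a mixed model over all curves with the slope shared within a line.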

XAV 939 = compound: Oc1nc(-c2ccc(C(F)(F)F)cc2)nc2c1CSCC2 [XAV 939]; details: top dose 5 µM; top dose inferred
Protocol: as §1

AZD7762 = compound: NC(=O)Nc1cc(-c2cccc(F)c2)sc1C(=O)N[C@H]1CCCNC1 [AZD7762]; details: top dose 2 µM
Protocol: as §1

NPK76-II-72-1 = compound: COc1cc(C(=O)NC2CCN(C)CC2)ccc1Nc1ncc2c(n1)N(C1CCCC1)C(C)CC(=O)N2C [NPK76-II-72-1]; details: top dose 10.24 µM; top dose inferred
Protocol: as §1

Bexarotene = compound: C=C(c1ccc(C(=O)O)cc1)c1cc2c(cc1C)C(C)(C)CCC2(C)C [Bexarotene]; details: top dose 8 µM
Protocol: as §1

GSK-650394 = compound: O=C(O)c1ccc(-c2c[nH]c3ncc(-c4ccccc4)cc23)cc1C1CCCC1 [GSK-650394]; details: top dose 16 µM; top dose inferred
Protocol: as §1

YK 4-279 = compound: COc1ccc(C(=O)CC2(O)C(=O)Nc3c(Cl)ccc(Cl)c32)cc1 [YK 4-279]; details: top dose 10 µM
Protocol: as §1

Cell Line | AUC (BMS-345541) | IC50 (BMS-345541) | AUC (XAV 939) | IC50 (XAV 939) | AUC (AZD7762) | IC50 (AZD7762) | AUC (NPK76-II-72-1) | IC50 (NPK76-II-72-1) | AUC (Bexarotene) | IC50 (Bexarotene) | AUC (GSK-650394) | IC50 (GSK-650394) | AUC (YK 4-279) | IC50 (YK 4-279)
A101D (melanoma, adherent) | 0.974 | > 16 µM | 0.936 | > 5 µM | 0.704 | 0.542 µM | 0.908 | > 10.2 µM | 0.965 | > 8 µM | 0.688 | 3.82 µM | – | –
A549 (lung adenocarcinoma, adherent) | – | – | 0.888 | > 5 µM | 0.642 | 0.326 µM | – | – | – | – | – | – | – | –
A2058 (melanoma, adherent) | 0.899 | > 16 µM | 0.966 | > 5 µM | 0.704 | 0.437 µM | 0.949 | > 10.2 µM | 0.947 | > 8 µM | 0.843 | 9.59 µM | – | –
AGS (stomach, adherent) | 0.886 | 14.5 µM | – | – | 0.711 | 0.458 µM | 0.927 | > 10.2 µM | 0.961 | > 8 µM | 0.804 | 7.04 µM | – | –
CAPAN-1 (pancreas, adherent) | 0.921 | > 16 µM | 0.985 | > 5 µM | 0.684 | 0.434 µM | 0.887 | > 10.2 µM | 0.928 | > 8 µM | 0.923 | > 16 µM | – | –
CHP-134 (neuroblastoma, suspension) | 0.908 | > 16 µM | – | – | – | – | 0.658 | 2 µM | – | – | – | – | – | –
CHP-212 (neuroblastoma, adherent) | 0.884 | 14.9 µM | 0.986 | > 5 µM | 0.502 | 0.127 µM | 0.988 | > 10.2 µM | 0.871 | 6.59 µM | 0.878 | 14.1 µM | – | –
COLO-829 (melanoma, adherent) | 0.953 | > 16 µM | 0.879 | > 5 µM | – | – | 0.921 | > 10.2 µM | 0.871 | > 8 µM | 0.979 | > 16 µM | – | –
COR-L32 (small cell lung carcinoma, suspension) | – | – | 0.913 | > 5 µM | – | – | – | – | – | – | – | – | 0.958 | > 10 µM
COR-L303 (small cell lung carcinoma, suspension) | 0.894 | > 16 µM | – | – | – | – | 0.687 | 2.1 µM | – | – | – | – | – | –
COR-L311 (small cell lung carcinoma, suspension) | 0.708 | 4.04 µM | – | – | – | – | 0.809 | 5.8 µM | – | – | – | – | – | –
D-423MG (glioma, adherent) | 0.828 | 13 µM | 0.96 | > 5 µM | 0.645 | 0.346 µM | 0.828 | 8.26 µM | – | – | – | – | – | –
D-566MG (glioma, adherent) | 0.907 | > 16 µM | 0.89 | > 5 µM | 0.554 | 0.175 µM | 0.943 | > 10.2 µM | – | – | – | – | – | –
DOHH-2 (B-cell lymphoma, suspension) | – | – | – | – | 0.54 | 0.161 µM | – | – | 0.973 | > 8 µM | 0.888 | > 16 µM | – | –
DOV13 (ovary, adherent) | 0.92 | > 16 µM | 0.905 | > 5 µM | 0.589 | 0.227 µM | 0.943 | > 10.2 µM | – | – | – | – | – | –
FLO-1 (oesophagus, adherent) | 0.838 | > 16 µM | 0.941 | > 5 µM | 0.588 | 0.243 µM | 0.879 | > 10.2 µM | – | – | – | – | – | –
H2810 (mesothelioma, adherent) | – | – | 0.976 | > 5 µM | – | – | – | – | – | – | – | – | – | –
HCT-15 (large intestine, adherent) | 0.925 | > 16 µM | 0.985 | > 5 µM | 0.901 | > 2 µM | 0.976 | > 10.2 µM | 0.9 | > 8 µM | 0.668 | 3.02 µM | – | –
HCT-116 (large intestine, adherent) | 0.878 | 14.8 µM | 0.985 | > 5 µM | 0.847 | 1.36 µM | 0.772 | 3.75 µM | – | – | 0.908 | > 16 µM | – | –
Hey (ovary, adherent) | 0.885 | 15.8 µM | 0.9 | > 5 µM | 0.557 | 0.177 µM | 0.946 | > 10.2 µM | – | – | – | – | – | –
JHOS-2 (ovary, adherent) | 0.916 | > 16 µM | 0.784 | 2.51 µM | 0.74 | 0.689 µM | 0.889 | > 10.2 µM | – | – | – | – | – | –
JHOS-4 (ovary, adherent) | – | – | 0.863 | > 5 µM | 0.629 | 0.332 µM | – | – | – | – | – | – | – | –
K-562 (chronic myeloid leukaemia, suspension) | – | – | – | – | – | – | 0.757 | 3.42 µM | – | – | – | – | – | –
KATOIII (stomach, semi-adherent) | – | – | 0.986 | > 5 µM | 0.694 | 0.415 µM | – | – | – | – | – | – | – | –
KP-N-YN (neuroblastoma, adherent) | 0.968 | > 16 µM | 0.985 | > 5 µM | 0.654 | – | 0.885 | > 10.2 µM | – | – | 0.877 | > 16 µM | – | –
